{
  "source": "PubChem BioAssay AID1508642",
  "about": "(National Center for Advancing Translational Sciences (NCATS), 2021)",
  "note": "Screen size: about 43,000 compounds; about 200 (0.47%) were called active. Another 12% or so got no clear call; they are omitted. Calls come from the whole dose curve; as a rule, active = well fitted cell-killing curve with a large enough effect; inconclusive = small, poorly fitted or top-dose-only effect, or effect the other way; inactive = flat fitted curve, though single readings scatter. The list shows a part of the results. % is set by controls: 0 for no effect and ±100 for the full control effect; potency is the fitted concentration of half-maximal effect.",
  "data": [
    {"experiment": "Cell viability qHTS assay in S16 Pmp22-F2sN cells; note: nearly all actives have a fitted effect of over 65% in size", "settings": "S16 Pmp22-F2sN Schwann cells viability, CellTiter-Glo, 24 h; series mostly up to 57.5 µM; activity change, negative = cytotoxicity: at the top concentration", "outline": "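Viability was measured by CellTiter-Glo luminescence (15 min, room temperature). This followed 24 h at 37 °C of compound exposure (23 nL pin transfer) in S16 Pmp22-F2sN Schwann cells, 500-1,000 per well.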", "values": [
      {"smiles": "CCOc1ccccc1CNC(=O)CCn1cccn1", "activity change, negative = cytotoxicity": "inactive: 7.62%"},
      {"smiles": "Cc1[nH]c2ccccc2c1C(=O)C(=O)NC1CC(=O)N(c2ccccc2)C1", "note": "(centres undefined)", "activity change, negative = cytotoxicity": "inactive: 2.77%"},
      {"smiles": "Cc1ccc(N2CCN(S(=O)(=O)c3cc(Br)cc4c3N(C(=O)C3CC3)CC4)CC2C)cc1", "note": "(centres undefined)", "activity change, negative = cytotoxicity": "inactive: 17.9%"},
      {"smiles": "CCCCSc1nnc2c(n1)OC(c1ccc(C)s1)Nc1ccccc1-2", "note": "(centres undefined)", "activity change, negative = cytotoxicity": "inactive: 2%"},
      {"smiles": "CCC(CC)c1nn2cc(-c3ccccc3)nc2s1", "activity change, negative = cytotoxicity": "inactive: 2.21%"},
      {"smiles": "CCOc1cc(-c2nnc(SCC(=O)NCCCOC)nc2-c2ccc(OC)c(OCC)c2)ccc1OC", "activity change, negative = cytotoxicity": "inactive: 3.69%"},
      {"smiles": "COc1ccc(NC(=O)C(NS(=O)(=O)c2cccc3nsnc23)c2ccccc2)cc1", "note": "(centres undefined)", "activity change, negative = cytotoxicity": "inactive: 7.18%"},
      {"smiles": "Cn1cc(S(=O)(=O)N2CCCCC2)cc1C(=O)NCc1ccc(Cl)cc1", "activity change, negative = cytotoxicity": "inactive: -27.1%"},
      {"smiles": "CCC(=O)Nc1nnc(S(=O)(=O)N2CCCCCC2)s1", "activity change, negative = cytotoxicity": "inactive: 6.71%"},
      {"smiles": "COc1ccc(N2CC(NC(=O)Cc3cccs3)CC2=O)cc1OC", "note": "(centres undefined)", "activity change, negative = cytotoxicity": "inactive: 0.489%"},
      {"smiles": "CCS(=O)(=O)N1CC(=O)N(c2ccc(C)c(C)c2)C(C)(C(=O)NC2CCCCCC2)C1", "note": "(centres undefined)", "activity change, negative = cytotoxicity": "inactive: 4.66%"},
      {"smiles": "CCCN(C(=O)c1cn(CC(C)C)c(=O)c2cc(OC)c(OC)cc12)c1cccc(C)c1", "activity change, negative = cytotoxicity": "inactive: 4.4%"},
      {"smiles": "COc1ccc(-c2cn3c(n2)sc2cc(C(=O)N4CCCCC4)ccc23)cc1", "activity change, negative = cytotoxicity": "inactive: -28.3%"},
      {"smiles": "CCc1ccc(NC(=O)CSc2nc3ccccc3c(=O)n2CCC(=O)NC2CCCCC2)cc1", "activity change, negative = cytotoxicity": "inactive: 0.84%"},
      {"smiles": "Cc1nc2nc(C)c(CCC(=O)NCCc3ccccc3)c(C)n2n1", "activity change, negative = cytotoxicity": "inactive: -0.587%"},
      {"smiles": "O=C(Cn1cc(S(=O)(=O)Cc2ccccc2Cl)c2ccccc21)Nc1cccc(C(F)(F)F)c1", "activity change, negative = cytotoxicity": "inactive: -2.18%"},
      {"smiles": "Cc1ccc(S(=O)(=O)N(CC(=O)Nc2c(C)cccc2C)c2cccc(Cl)c2)cc1", "activity change, negative = cytotoxicity": "inactive: -27.2%"},
      {"smiles": "CCOc1ccc(C(NC(=O)c2cc(OC)c(OC)c(OC)c2)c2cc(Cl)c3cccnc3c2O)cc1", "note": "(centres undefined)", "Potency": "active: 1780 nM"},
      {"smiles": "Cc1ccc2nc(CN3CCN(S(=O)(=O)c4ccccc4)CC3)oc2c1", "activity change, negative = cytotoxicity": "inactive: 15.7%"},
      {"smiles": "Nc1c(-c2nc(-c3ccccc3Cl)no2)nnn1-c1ccccc1F", "activity change, negative = cytotoxicity": "inactive: -1.86%"},
      {"smiles": "CCC(Sc1nc2cc3c(cc2c(=O)n1CCCC(=O)NCc1ccc2c(c1)OCO2)OCO3)C(=O)NCCCOC", "note": "(centres undefined)", "activity change, negative = cytotoxicity": "inactive: 1.53%"},
      {"smiles": "CCC(=O)N1c2ccc(S(=O)(=O)N3CCCCCC3)cc2CC1C", "note": "(centres undefined)", "activity change, negative = cytotoxicity": "inactive: 4.43%"},
      {"smiles": "O=c1c2oc3ccccc3c2ncn1Cc1ccc(Br)cc1", "activity change, negative = cytotoxicity": "inactive: -1.87%"},
      {"smiles": "COc1ccc(C2c3c(oc4ccccc4c3=O)C(=O)N2c2nc(C)c(C)s2)cc1", "note": "(centres undefined)", "activity change, negative = cytotoxicity": "inactive: -0.153%"},
      {"smiles": "COc1ccc(C2c3c(-c4ccc(F)cc4)n[nH]c3C(=O)N2c2ccccc2)cc1OC", "note": "(centres undefined)", "activity change, negative = cytotoxicity": "inactive: -20.6%"},
      {"smiles": "CCOc1ccc(CCNC(=O)c2cc3c(-c4ccccc4F)nn(C)c3s2)cc1OCC", "activity change, negative = cytotoxicity": "inactive: -4.9%"},
      {"smiles": "CCOC(=O)c1ccc(NC(=O)c2ccc(-c3cccc(Cl)c3C)o2)cc1", "activity change, negative = cytotoxicity": "inactive: 19.4%"},
      {"smiles": "CCOc1ccc(NC(=O)CS(=O)(=O)Cc2nc(-c3ccc(C)cc3)oc2C)cc1", "activity change, negative = cytotoxicity": "inactive: -7.42%"},
      {"smiles": "O=C(COc1ccccc1)Nc1ccc2nc(SCC(=O)N3CCCC3)sc2c1", "activity change, negative = cytotoxicity": "inactive: 3.54%"},
      {"smiles": "COc1ccc(C2CC(=O)Oc3c2c(=O)n(C)c2ccccc32)c(OC)c1OC", "note": "(centres undefined)", "activity change, negative = cytotoxicity": "inactive: -0.422%"},
      {"smiles": "Cc1ccc(Nc2c(-c3ccc(C)cc3)nc3c(C)cccn23)cc1", "activity change, negative = cytotoxicity": "inactive: -3.98%"},
      {"smiles": "CC(C)c1ccc(Nc2c(-c3ccc(N(C)C)cc3)nc3cnccn23)cc1", "activity change, negative = cytotoxicity": "inactive: -0.575%"},
      {"smiles": "COc1ccc(-c2noc(CSc3nc4ccccc4[nH]3)n2)cc1", "activity change, negative = cytotoxicity": "inactive: -28.4%"},
      {"smiles": "O=C(NCCc1ccc(Cl)cc1)C(=O)NCC(c1cccs1)S(=O)(=O)c1ccccc1", "note": "(centres undefined)", "activity change, negative = cytotoxicity": "inactive: 1.38%"},
      {"smiles": "Cc1ccc(C)c(NC(=O)CSc2nc(=O)n(Cc3ccncc3)c3c2CCC3)c1", "activity change, negative = cytotoxicity": "inactive: 9.18%"},
      {"smiles": "CC(=O)N1c2ccc(S(=O)(=O)NCCC(=O)N(C)Cc3ccccc3)cc2CC1C", "note": "(centres undefined)", "activity change, negative = cytotoxicity": "inactive: -0.409%"},
      {"smiles": "COC(=O)c1cc2sc(C)cc2n1Cc1nc(-c2ccc(C)cc2)oc1C", "activity change, negative = cytotoxicity": "inactive: 8.4%"},
      {"smiles": "O=C(Cc1ccc(Cl)cc1)Nc1ccc2oc(-c3ccccc3F)nc2c1", "activity change, negative = cytotoxicity": "inactive: -0.608%"},
      {"smiles": "CNC(=O)c1c(NC(=O)Cc2coc3ccc(OC)cc23)sc2c1CCCC2", "activity change, negative = cytotoxicity": "inactive: 0.789%"},
      {"smiles": "COc1cccc(CN(C(=O)c2oc3ccccc3c2C)C2CCS(=O)(=O)C2)c1", "note": "(centres undefined)", "activity change, negative = cytotoxicity": "inactive: -2.22%"},
      {"smiles": "CCS(=O)(=O)N1CCc2cc(C(=O)NCc3ccccc3Cl)ccc21", "activity change, negative = cytotoxicity": "inactive: 1.73%"},
      {"smiles": "Cc1ccc(NC(=O)CCN2C(=O)c3ccccc3Sc3ncccc32)c(Cl)c1", "activity change, negative = cytotoxicity": "inactive: 0.098%"},
      {"smiles": "COc1ccccc1NC(=O)c1sc2nc(C)c(C(=O)Nc3ccc(C)cc3C)c(-c3ccccc3Cl)c2c1N", "activity change, negative = cytotoxicity": "inactive: 5.64%"},
      {"smiles": "Cc1ccc2oc(=O)c3cc(C(=O)NCCc4ccc(Cl)cc4)sc3c2c1", "activity change, negative = cytotoxicity": "inactive: -0.71%"},
      {"smiles": "CCOc1ccccc1NS(=O)(=O)c1cc(-c2cnc(C3CC3)o2)ccc1C", "activity change, negative = cytotoxicity": "inactive: 1.38%"},
      {"smiles": "CCc1ccccc1NC(=O)NC(CC)Cn1nnc2ccccc2c1=O", "note": "(centres undefined)", "activity change, negative = cytotoxicity": "inactive: 3.11%"},
      {"smiles": "O=C(c1cc2ccc3cccnc3c2[nH]1)N1CCN(c2cccc(Cl)c2)CC1", "activity change, negative = cytotoxicity": "inactive: -26.7%"},
      {"smiles": "COc1ccc(NC(=O)C(C(C)C)N2Cc3ccccc3C2=O)cc1", "note": "(centres undefined)", "activity change, negative = cytotoxicity": "inactive: -17.8%"},
      {"smiles": "CCCCc1nn2c(=O)cc(COC(=O)c3ccccc3C)nc2s1", "activity change, negative = cytotoxicity": "inactive: 0.0757%"},
      {"smiles": "COCCCNc1nc(NCc2ccc(C)cc2)c2cnn(C)c2n1", "activity change, negative = cytotoxicity": "inactive: -5.72%"},
      {"smiles": "CN1CCN(C(CNC(=O)c2c(F)cccc2F)c2ccc3c(c2)OCO3)CC1", "note": "(centres undefined)", "activity change, negative = cytotoxicity": "inactive: 17.7%"},
      {"smiles": "Cc1cccc(N2CCN(C(=O)c3cc4ccc5cccnc5c4[nH]3)CC2C)c1", "note": "(centres undefined)", "activity change, negative = cytotoxicity": "inactive: -2.83%"},
      {"smiles": "CCN(C(=O)Cn1ncc2c(=O)oc3ccccc3c21)c1ccccc1F", "activity change, negative = cytotoxicity": "inactive: 0.618%"},
      {"smiles": "O=c1c2ccccc2n(Cc2cccc(Cl)c2)c(=O)n1Cc1ccccc1", "activity change, negative = cytotoxicity": "inactive: -4.81%"},
      {"smiles": "COCCc1nn2c(=O)cc(COC(=O)c3ccc(Br)cc3)nc2s1", "activity change, negative = cytotoxicity": "inactive: -10.9%"},
      {"smiles": "CCC(C)NC(=O)c1sc2nc3n(c(=O)c2c1C)CCC3", "note": "(centres undefined)", "activity change, negative = cytotoxicity": "inactive: 2.34%"},
      {"smiles": "O=c1oc2ccccc2cc1-c1nc(-c2cccs2)no1", "activity change, negative = cytotoxicity": "inactive: 12.7%"},
      {"smiles": "COc1ccccc1-c1nc(SCC(=O)c2ccc(Cl)cc2)n[nH]1", "activity change, negative = cytotoxicity": "inactive: -23.1%"},
      {"smiles": "CCC(=O)Nc1sc2c(c1C(=O)Nc1ccc(Br)cc1)CCCCC2", "activity change, negative = cytotoxicity": "inactive: -25.3%"},
      {"smiles": "COc1ccc(CCNC(=O)c2ccc(Cn3c(=O)[nH]c4cc(OC)c(OC)cc4c3=O)cc2)cc1OC", "activity change, negative = cytotoxicity": "inactive: 23.4%"},
      {"smiles": "Cc1cc(C)c(NC(=O)CSc2nc3c([nH]c4ccccc43)c(=O)n2C)c(C)c1", "activity change, negative = cytotoxicity": "inactive: 10.2%"},
      {"smiles": "CCCOc1cccc(C2c3c(oc4ccc(F)cc4c3=O)C(=O)N2c2nc(C)c(C(C)=O)s2)c1", "note": "(centres undefined)", "activity change, negative = cytotoxicity": "inactive: 10.6%"},
      {"smiles": "CCCCNC(=O)CN1CCN(c2ncc(NC(=O)c3ccc(Cl)cc3)cc2C(=O)O)CC1", "activity change, negative = cytotoxicity": "inactive: 8.34%"},
      {"smiles": "CCc1ccccc1N(CC)C(=O)C1CCN(c2ncnc3c2nc2n3CCCCC2)CC1", "activity change, negative = cytotoxicity": "inactive: -4.72%"}
    ]}
  ]
}
